The values below come from the supplement of paper PMC6609913.

The subject of the experiment is V-C8 + BRCA2 (BRCA2-proficient hamster cells). The experiment can be described thus: normalised cell viability (fraction of plate median); higher = more viable cells (less toxic). The conditions noted are these: 5 µM. In outline: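 Cell viability was measured with a resazurin assay, normalised to the plate median (modified robust per cent of sample) and averaged over triplicate wells. Hamster V-C8 cells lacking BRCA2 and V-C8 cells with BRCA2 restored were seeded in 96-well plates. After 24 h, library drugs from 10 mM DMSO stocks were added at a final 5 μM in 100 μl medium and left for 3 days (screen 1) or 6 days (screen 2), with solvent-only wells alongside.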

Where a name gives a salt, the structure may show the parent alone. ± gives the standard deviation of the averaged measurements. Over roughly 1,300 compounds, “normalised cell viability” has its median near 1; the lowest 2% begin near 0.15. This is one part of the list.

Consider `Cc1ccc(Cl)c(Nc2ccccc2C(=O)O)c1Cl` [Meclofenamic acid sodium salt monohydrate], for which the normalised cell viability reads like this: (treatment time: 3 days) 1.02 ± 0.068; (treatment time: 6 days) 1.08 ± 0.084.

Turning to `CCN1CCN(C(=O)N[C@@H](C(=O)N[C@@H]2C(=O)N3C(C(=O)O)=C(CSc4nnnn4C)CS[C@H]23)c2ccc(O)cc2)C(=O)C1=O` [Cefoperazone dihydrate], the normalised cell viability runs as follows: (treatment time: 3 days) 0.936 ± 0.029; (treatment time: 6 days) 1.11 ± 0.07.

In the case of `CN(C)CCOc1ccc(/C(=C(/CCCl)c2ccccc2)c2ccccc2)cc1` [Toremifene], the normalised cell viability reads like this: (treatment time: 3 days) 0.822 ± 0.058; (treatment time: 6 days) 0.891 ± 0.027.

With `CC(C(=O)O)c1ccc(N2Cc3ccccc3C2=O)cc1` (centres undefined) [Indoprofen], the normalised cell viability by setting is: (treatment time: 3 days) 1.03 ± 0.029; (treatment time: 6 days) 1.05 ± 0.14.

`CC1=Nc2ccc(Cl)cc2S(=O)(=O)N1` [Diazoxide]: the normalised cell viability stood at 0.911 ± 0.059 (treatment time: 3 days) and 1 ± 0.086 (treatment time: 6 days).

`Oc1ccc(OCc2ccccc2)cc1` [Monobenzone]: the normalised cell viability runs as follows: (treatment time: 3 days) 0.572 ± 0.014; (treatment time: 6 days) 0.694 ± 0.019.

Take `C[C@H](O)C(=O)Nc1c(I)c(C(=O)NC(CO)CO)c(I)c(C(=O)NC(CO)CO)c1I` [Iopamidol]: the normalised cell viability was determined as 0.848 ± 0.081 (treatment time: 3 days) and 1.06 ± 0.045 (treatment time: 6 days).

As for `CC(C)CC(=O)N[C@H](C(=O)N[C@H](C(=O)N[C@@H](CC(C)C)[C@@H](O)CC(=O)N[C@@H](C)C(=O)N[C@@H](CC(C)C)[C@@H](O)CC(=O)O)C(C)C)C(C)C` [Pepstatin A], the normalised cell viability (treatment time: 3 days) is 0.873 ± 0.026 and the normalised cell viability (treatment time: 6 days) was 0.965 ± 0.065.

In the case of `O=C1CC2(CCCC2)CC(=O)N1CCCCN1CCN(c2ncccn2)CC1` [Buspirone hydrochloride], the normalised cell viability is, setting by setting: (treatment time: 3 days) 0.997 ± 0.038; (treatment time: 6 days) 1.083 ± 0.0083.

As to `CC[C@H]1OC(=O)[C@H](C)[C@@H](O[C@H]2C[C@@](C)(OC)[C@@H](O)[C@H](C)O2)[C@H](C)[C@@H](O[C@@H]2O[C@H](C)C[C@H](N(C)C)[C@H]2O)[C@](C)(O)C[C@@H](C)[C@@H]2N[C@@H](COCCOC)O[C@H]([C@H]2C)[C@]1(C)O` [Dirithromycin], the normalised cell viability amounted to 1.06 ± 0.092 (treatment time: 3 days) and 1.03 ± 0.082 (treatment time: 6 days).

Turning to `Cc1cc(CC(=O)O)n(C)c1C(=O)c1ccc(Cl)cc1` [Zomepirac sodium salt], the normalised cell viability by setting is: (treatment time: 3 days) 1.06 ± 0.042; (treatment time: 6 days) 1.02 ± 0.017.

Regarding `CC1Cc2ccccc2N1NC(=O)c1ccc(Cl)c(S(N)(=O)=O)c1` (centres undefined) [Indapamide], the normalised cell viability is 1 ± 0.029 (treatment time: 3 days) and 0.996 ± 0.072 (treatment time: 6 days).

With `O=C(NCC(O)CO)c1c(I)c(C(=O)NCC(O)CO)c(I)c(N(CCO)C(=O)CO)c1I` (centres undefined) [Ioversol], the normalised cell viability (treatment time: 3 days) was 0.892 ± 0.055 and the normalised cell viability (treatment time: 6 days) was determined as 0.989 ± 0.03.

For the molecule `CO/N=C(\C(=O)N[C@@H]1C(=O)N2C(C(=O)O)=C(COC(N)=O)CS[C@H]12)c1ccco1` [Cefuroxime sodium salt], the normalised cell viability (treatment time: 3 days) came out at 0.862 ± 0.052 and the normalised cell viability (treatment time: 6 days) was found to be 0.957 ± 0.14.

Regarding `Nc1ccc(S(=O)(=O)Nc2ccnn2-c2ccccc2)cc1` [Sulfaphenazole], the normalised cell viability is 1.07 ± 0.02 (treatment time: 3 days) and 1.01 ± 0.041 (treatment time: 6 days).

As for `O=C1OCCN1/N=C/c1ccc([N+](=O)[O-])o1` [Furazolidone], the normalised cell viability is 0.67 ± 0.033 (treatment time: 3 days) and 0.47 ± 0.052 (treatment time: 6 days).

For `O=S(=O)(O)c1cc(O)ccc1O` [Ethamsylate], the normalised cell viability is 0.991 ± 0.028 (treatment time: 3 days) and 1.02 ± 0.048 (treatment time: 6 days).

`c1ccc([C@H]2CN3CCSC3=N2)cc1` [Levamisole hydrochloride]: the normalised cell viability is 1.02 ± 0.039 (treatment time: 3 days) and 1.01 ± 0.012 (treatment time: 6 days).

Turning to `CCC(=O)O[C@]1(C(=O)CCl)[C@@H](C)C[C@H]2[C@@H]3CCC4=CC(=O)C=C[C@]4(C)[C@@]3(F)[C@@H](O)C[C@@]21C` [Clobetasol propionate], the normalised cell viability reads like this: (treatment time: 3 days) 0.955 ± 0.027; (treatment time: 6 days) 1.06 ± 0.025.

On to `COc1ccc(C2CNC(=O)C2)cc1OC1CCCC1` (centres undefined) [Rolipram], for which the normalised cell viability runs as follows: (treatment time: 3 days) 0.985 ± 0.037; (treatment time: 6 days) 1.15 ± 0.22.

Turning to `CCCNCC(O)COc1ccccc1C(=O)CCc1ccccc1` (centres undefined) [Propafenone hydrochloride], the normalised cell viability (treatment time: 3 days) was 0.749 ± 0.016 and the normalised cell viability (treatment time: 6 days) was 0.811 ± 0.05.

Regarding `COc1ccccc1OCC(O)CN1CCN(CC(=O)Nc2c(C)cccc2C)CC1` (centres undefined) [Ranolazine], the normalised cell viability (treatment time: 3 days) came out at 1.01 ± 0.066 and the normalised cell viability (treatment time: 6 days) turned out to be 1.06 ± 0.04.

As for `COc1cc([C@@H]2c3cc4c(cc3[C@@H](O[C@@H]3O[C@@H]5CO[C@@H](C)O[C@H]5[C@H](O)[C@H]3O)[C@H]3COC(=O)[C@H]23)OCO4)cc(OC)c1O` [Etoposide], the normalised cell viability reads like this: (treatment time: 3 days) 0.141 ± 0.0097; (treatment time: 6 days) 0.15 ± 0.017.

On to `C[C@H]1C[C@@H]2[C@H]([C@@H](O)C[C@@]3(C)[C@H]2CC[C@]3(O)C(=O)CO)[C@@]2(C)C=CC(=O)C=C12` [Methylprednisolone, 6-alpha], for which the normalised cell viability (treatment time: 3 days) is 1.03 ± 0.055 and the normalised cell viability (treatment time: 6 days) stood at 1.02 ± 0.045.

On to `CC(C)NCC(O)c1ccc2ccccc2c1` (centres undefined) [Pronethalol hydrochloride], for which the normalised cell viability is, setting by setting: (treatment time: 3 days) 0.972 ± 0.037; (treatment time: 6 days) 0.995 ± 0.041.

As to `Nc1nc2n[nH]nc2c(=O)[nH]1` [Azaguanine-8], the normalised cell viability (treatment time: 3 days) was found to be 0.787 ± 0.038 and the normalised cell viability (treatment time: 6 days) is 0.841 ± 0.081.

Take `CN(C)c1nc(N(C)C)nc(N(C)C)n1` [Altretamine]: the normalised cell viability amounted to 1.07 ± 0.018 (treatment time: 3 days) and 0.938 ± 0.047 (treatment time: 6 days).

`Cc1c(N(C)CS(=O)(=O)O)c(=O)n(-c2ccccc2)n1C` [Dipyrone]: the normalised cell viability runs as follows: (treatment time: 3 days) 0.91 ± 0.023; (treatment time: 6 days) 0.921 ± 0.066.

For the molecule `O=c1[nH]c(=O)n(C2CCCO2)cc1F` (centres undefined) [Tegafur], the normalised cell viability is 0.967 ± 0.023 (treatment time: 3 days) and 1.07 ± 0.012 (treatment time: 6 days).

As to `CC(NCCC(c1ccccc1)c1ccccc1)c1ccccc1` (centres undefined) [Fendiline hydrochloride], the normalised cell viability runs as follows: (treatment time: 3 days) 0.689 ± 0.027; (treatment time: 6 days) 0.75 ± 0.038.

`CCN(CC)CCc1nc(-c2ccccc2)no1` [Oxalamine citrate salt]: the normalised cell viability reads like this: (treatment time: 3 days) 1 ± 0.018; (treatment time: 6 days) 1.01 ± 0.03.

Turning to `CC(C)NCC(O)c1ccc(O)c(O)c1` (single isomer, unassigned; (+)) [(+)-Isoproterenol (+)-bitartrate salt], the normalised cell viability came to 1 ± 0.048 (treatment time: 3 days) and 1.05 ± 0.07 (treatment time: 6 days).
